# According to publication PMC3642104:
# Protein sequences, listed by entry. Tags and fused reporters are not part of them.
# UniProt P63208: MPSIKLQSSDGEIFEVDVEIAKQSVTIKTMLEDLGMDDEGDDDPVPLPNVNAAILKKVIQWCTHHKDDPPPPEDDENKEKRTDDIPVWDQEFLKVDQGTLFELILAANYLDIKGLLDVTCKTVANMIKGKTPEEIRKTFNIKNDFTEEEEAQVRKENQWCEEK
# UniProt P61201: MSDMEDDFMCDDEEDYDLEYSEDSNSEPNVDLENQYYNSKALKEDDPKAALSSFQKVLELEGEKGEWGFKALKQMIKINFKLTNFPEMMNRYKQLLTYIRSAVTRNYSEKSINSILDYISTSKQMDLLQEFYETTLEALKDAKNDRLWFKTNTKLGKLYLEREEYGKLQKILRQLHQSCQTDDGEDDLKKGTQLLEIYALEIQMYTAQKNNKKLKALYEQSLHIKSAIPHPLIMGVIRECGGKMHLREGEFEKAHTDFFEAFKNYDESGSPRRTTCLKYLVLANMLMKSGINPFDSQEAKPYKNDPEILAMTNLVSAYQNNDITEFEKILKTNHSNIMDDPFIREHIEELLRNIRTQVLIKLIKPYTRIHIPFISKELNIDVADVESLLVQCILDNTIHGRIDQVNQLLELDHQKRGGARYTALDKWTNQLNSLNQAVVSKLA
# UniProt Q92905: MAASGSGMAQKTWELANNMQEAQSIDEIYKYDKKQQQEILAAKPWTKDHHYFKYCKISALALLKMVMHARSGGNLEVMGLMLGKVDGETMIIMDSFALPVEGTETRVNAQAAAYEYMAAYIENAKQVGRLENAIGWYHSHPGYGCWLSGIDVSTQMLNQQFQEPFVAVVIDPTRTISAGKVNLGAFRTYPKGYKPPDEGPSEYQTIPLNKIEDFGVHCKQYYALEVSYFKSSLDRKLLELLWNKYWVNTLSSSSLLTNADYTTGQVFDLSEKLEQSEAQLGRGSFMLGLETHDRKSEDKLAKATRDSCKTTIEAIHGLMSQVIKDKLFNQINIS
# No constants are given. Whether binding was seen depends on the method and setting. For some assays here: Binding seen in cells or lysates may run through a third protein. Some results given as binding are weak or reduced against the parent protein; the word gives no strength. Sequences can lack the tags named with a protein.
# Tests used:
# [1] = target: T1, FLAG-tagged Fbxw4 (mouse) (UniProt Q9JMJ2); assay: SEC; lysates of 293T cells transfected with empty vector or FLAG-Fbxw4 separated on a Superose 6 gel filtration column; every other fraction western blotted for Fbxw4 and SKP1
# T1 sequence: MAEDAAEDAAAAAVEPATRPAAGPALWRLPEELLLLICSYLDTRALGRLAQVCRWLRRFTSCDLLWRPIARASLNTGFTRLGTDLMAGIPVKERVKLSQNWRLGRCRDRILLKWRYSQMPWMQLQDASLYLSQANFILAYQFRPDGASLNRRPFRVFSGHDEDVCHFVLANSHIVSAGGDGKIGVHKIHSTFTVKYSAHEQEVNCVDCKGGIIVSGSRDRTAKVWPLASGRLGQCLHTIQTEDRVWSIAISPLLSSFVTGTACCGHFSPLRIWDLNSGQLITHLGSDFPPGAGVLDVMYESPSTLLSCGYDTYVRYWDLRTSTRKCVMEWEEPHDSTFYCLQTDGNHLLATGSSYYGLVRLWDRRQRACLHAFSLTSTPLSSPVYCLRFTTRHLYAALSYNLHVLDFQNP
# [2] = target: T2, FLAG-tagged Fbxo46 (mouse) (UniProt Q8BG80); assay: co-IP; 200 ug CHAPS lysate of transfected 293T cells, FLAG M2 agarose, 1 h at 4 degrees, three washes in CHAPS buffer, western blot for endogenous proteins; in Figure 4B cells with or without 25 uM MG132 for six hours
# T2 sequence: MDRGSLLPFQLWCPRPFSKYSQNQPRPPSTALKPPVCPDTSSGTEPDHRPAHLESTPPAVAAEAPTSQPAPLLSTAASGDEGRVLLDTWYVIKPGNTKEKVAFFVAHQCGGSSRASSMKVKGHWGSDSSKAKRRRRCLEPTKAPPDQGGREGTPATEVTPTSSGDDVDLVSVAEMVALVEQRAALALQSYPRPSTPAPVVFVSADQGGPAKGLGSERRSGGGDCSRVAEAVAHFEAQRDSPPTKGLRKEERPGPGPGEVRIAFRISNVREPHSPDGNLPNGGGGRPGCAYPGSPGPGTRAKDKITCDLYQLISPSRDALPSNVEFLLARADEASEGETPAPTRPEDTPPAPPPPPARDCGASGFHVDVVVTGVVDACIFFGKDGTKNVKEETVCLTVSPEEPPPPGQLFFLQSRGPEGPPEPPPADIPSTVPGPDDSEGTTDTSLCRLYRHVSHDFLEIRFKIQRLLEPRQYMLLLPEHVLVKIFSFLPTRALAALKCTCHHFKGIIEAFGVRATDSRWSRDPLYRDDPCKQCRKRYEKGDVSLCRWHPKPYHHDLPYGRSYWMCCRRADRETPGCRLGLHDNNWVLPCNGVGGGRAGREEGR
# FLAG-Fbxw4^−fbox (mouse) = target: T3, FLAG-Fbxw4^−fbox (mouse) (UniProt Q9JMJ2); assay: as above
# T3 sequence: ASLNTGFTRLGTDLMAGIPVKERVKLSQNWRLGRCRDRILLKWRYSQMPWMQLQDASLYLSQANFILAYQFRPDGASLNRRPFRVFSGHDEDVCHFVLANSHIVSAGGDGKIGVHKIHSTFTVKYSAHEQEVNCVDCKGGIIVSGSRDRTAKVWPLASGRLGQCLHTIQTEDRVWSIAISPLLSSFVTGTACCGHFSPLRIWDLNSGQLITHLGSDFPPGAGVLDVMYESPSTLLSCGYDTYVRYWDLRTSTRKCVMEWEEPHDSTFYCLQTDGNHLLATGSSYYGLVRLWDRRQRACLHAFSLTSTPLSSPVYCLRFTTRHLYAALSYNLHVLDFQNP
# [3] = target: T1, FLAG-tagged Fbxw4 (mouse); assay: as above
binding [1],binding [2],binding (FLAG-Fbxw4^−fbox (mouse)),binding [3],Substance
binds,binds,no binding,binds,SKP1 (from UniProt P63208 1-163)
–,no binding,–,binds,COPS2 (from UniProt P61201 1-443)
–,no binding,–,binds,COPS5 (from UniProt Q92905 1-334)
